Among all 39,000 compounds or so, about 220 (0.56%) showed activity. The list shows a part of the results.

These results are taken from the supplement of paper PMC9446081.
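Further: static incubation at 37 °C against the wild-type strain, values averaged over two biological replicates.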

In the assay the test system is Escherichia coli K-12 BW25113. The assay is described as follows: relative growth (OD600 normalised to plate interquartile mean) (fraction); higher = less growth inhibition, active = 0.2 or less. The note with it: 50 µM; LB; incubation time: overnight (16-24 h).
As to `CCC1(C2=NCCN2)Cc2ccccc2O1.Cl` (stereo unspecified), the relative growth is inactive: 0.883. Under `CC(=O)O.Cc1cc2c(C(C)C)c(O)c(O)c(C=O)c2c(O)c1-c1c(C)cc2c(C(C)C)c(O)c(O)c(C=O)c2c1O` stands inactive: 1.02. As for `Cc1cc(C(C#N)c2ccc(Cl)cc2)c(Cl)cc1NC(=O)c1cc(I)cc(I)c1O` (stereo unspecified), the relative growth was inactive: 0.644. For `CCN(CC)C1CCCCC1` the value was inactive: 1.01. For `CC(C)(C)NCC(O)c1cc(Cl)c(N)c(Cl)c1.Cl` (stereo unspecified), the relative growth was inactive: 1.08.

As for `C[C@@]1(O)[C@H](O)[C@@H](CO)O[C@H]1n1ccc2c(N)ncnc21`, the relative growth is inactive: 0.994. Turning to `O=C1C=C2C=CC3CC2(O1)C1CCCCN31` (stereo unspecified), the relative growth was inactive: 1.03. Regarding `CNCCc1cnc[nH]1`, the relative growth was inactive: 1.

`Br.CN1C2CC(OC(=O)C(CO)c3ccccc3)CC1C1OC12` (stereo unspecified): the relative growth was inactive: 0.941. In the case of `CC[C@@H](N)[C@@H](O)c1ccc(O)c(O)c1`, the relative growth was inactive: 0.971. For `Cn1cc(N2C[C@@H]3CNC[C@@H]3C2=O)cn1` the value was inactive: 1.01; for `COc1cc2c(c(OC)c1OC)-c1ccc(O)c(=O)cc1C(NC(C)=O)CC2` (stereo unspecified), inactive: 1.03; for `CCn1cnc2c(Nc3cccc(Cl)c3)nc(N[C@@H]3CCCC[C@@H]3N)nc21`, inactive: 0.943. On to `COC(=O)CC1=C(C(=O)OC)[C@]2(C(=O)Nc3ccccc32)C(C(=O)OC)C(=N)O1` (stereo partly specified), for which the relative growth is inactive: 1. Under `COc1ccc(CCN)cc1OC` stands inactive: 0.997; under `O=C(CBr)N1CC([N+](=O)[O-])([N+](=O)[O-])C1`, inactive: 0.922; under `Nc1ccc2c(c1)CNCC2`, inactive: 1.02. Under `OC[C@@H]1[C@@H](O)[C@H](O)[C@H]2[C@@H](O)CCN21` stands inactive: 0.997; under `CC(C)C[C@H](NC(=O)[C@H](CO)NC(=O)CNC(=O)[C@H](CC(C)C)NC(=O)[C@H](CCC(=O)O)NC(=O)[C@H](Cc1ccc(O)cc1)NC(=O)[C@H](CO)NC(=O)[C@H](CC(N)=O)NC(=O)[C@H](Cc1ccccc1)NC(=O)[C@H](CO)NC(=O)[C@@H](N)CSSC[C@H](N)C(=O)N[C@@H](Cc1ccc(O)cc1)C(=O)NCC(=O)N[C@@H](CCCNC(=N)N)C(=O)N[C@@H](CCCCN)C(=O)N[C@@H](CCCCN)C(=O)N[C@@H](CCCNC(=N)N)C(=O)N[C@@H](CCCNC(=N)N)C(=O)N[C@@H](CCC(N)=O)C(=O)N[C@@H](CCCNC(=N)N)C(=O)N[C@@H](CCCNC(=N)N)C(=O)N[C@@H](CCCNC(=N)N)C(=O)O)C(=O)O`, inactive: 0.972; under `O=C1NC(=S)NC(=O)C1=Cc1ccccc1`, inactive: 1.

For the molecule `COc1ccc(C(CN(C)C)C2(O)CCCCC2)cc1.Cl` (stereo unspecified), the relative growth was inactive: 1.14.
